Test results: PubChem BioAssay AID1508624 (National Center for Advancing Translational Sciences (NCATS), 2021)
About 120 (0.25%) of roughly 48,000 compounds were called active. About 4% were inconclusive and are not listed. Calls come from the whole dose curve; as a rule, active = well fitted activation curve with a large enough effect; inconclusive = small, poorly fitted or top-dose-only effect, or another doubt; inactive = no such curve, though single readings can be large or run the other way. The list shows a part of the results.

Assay: Primary qHTS for Identification of Small Molecule Activators of Huntingtin-Antisense Promoter Activity; note: nearly all actives have a fitted effect of over 55% in size
Conditions: HEK293 HTT-AS promoter firefly luciferase reporter (activity 0% = vehicle and -100% = no light), 24 h; series mostly up to 57.5 µM; activity change, positive = activation: at the top concentration
Procedure, shortened: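 Firefly luciferase signal from promoter-reporter HEK293 cells was scaled between vehicle (0%) and zero RLU (-100%). Compounds were tested at final concentrations of up to 57.5 uM over 24 h at 37 degrees C. PTC124 at 50 uM final served as control inhibitor.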

Activity change, positive = activation, inactive:
Cc1nc2ccc(S(=O)(=O)NC(C(=O)N3CCN(c4cccc(Cl)c4)CC3)C(C)C)cc2s1 (stereo not given) -17%
COc1ccc(N2C(=O)CCSC23C(=O)N(Cc2ccc(F)cc2)c2ccccc23)cc1 (stereo not given) -37.3%
Cc1ccc(-c2onc(C)c2C)cc1S(=O)(=O)Nc1cccc(Cl)c1C -48.1%
CCOc1ccc(NC(=O)C2CCN(S(=O)(=O)c3c(C)noc3/C=C/c3ccco3)CC2)cc1 -13.9%
CC(C)CC(=O)Nc1n[nH]c2c1CN(C(=O)C1CCN(C)CC1)C2(C)C -47.5%
CCOC(=O)c1ccccc1NC(=O)N1CC(C)Oc2ccc(C)cc21 (stereo not given) -34.5%
CCOc1ccc(NC(=O)CCn2cccn2)cc1 15.3%
CCCCOC(=O)/C(C#N)=C\c1ccc(-c2ccc(Cl)cc2)o1 -1.25%
CC(=O)c1ccc(C(=O)N(Cc2cccnc2)c2nc3c(C)c(C)ccc3s2)cc1 -31.4%
CCOC(=O)N1CCN(C(=O)c2ccc3c(c2)N(Cc2cccc(Cl)c2)C(=O)c2ccccc2S3=O)CC1 (stereo not given) -32.8%
Cc1ccc(-c2nc3ccccn3c2Nc2ccc3c(c2)OCCO3)o1 5.12%
O=C1CN(C(=O)COc2ccc(Cl)cc2)C(c2ccc(F)cc2)c2cc(Cl)ccc2N1 (stereo not given) -20.6%
O=C(Nc1ccc(Br)cc1)C1CCN(c2ncccn2)CC1 1.12%
COc1cc(NC(=O)C(=O)Nc2ccc3nc4n(c(=O)c3c2)CCCCC4)cc(OC)c1OC -16.6%
CCOC(=O)Cn1c(=O)oc2cc(S(=O)(=O)NC(C)c3ccccc3)ccc21 (stereo not given) -16.4%
COC(=O)c1nc2n(n1)C(c1cc(OC)ccc1OC)C=C(c1ccc(Br)cc1)N2 (stereo not given) -39.5%
O=C(NCCS(=O)(=O)c1ccc(C(F)(F)F)cn1)c1ccc(Cl)cc1 -5.5%
O=C(c1ccccc1F)N1c2nc(-c3ccco3)nn2C2(CCCCC2)[C@@H]2CCCC[C@@H]21 -37.6%
COc1ccccc1CNC(=O)c1ccc(-n2c(C)cc3c2CCCC3)cc1 2.69%
Cc1c(Cl)cccc1NS(=O)(=O)c1ccc(NS(=O)(=O)c2ccc3c(c2)OCCO3)cc1 -33.9%
COc1ccc(Cl)cc1NC(=O)c1cnc(N2CCCCC2)c2ccccc12 -20.7%
CCOC(=O)c1c(C)[nH]c(C)c1S(=O)(=O)N1CCCC(C(=O)NCc2cccc(OC)c2)C1 (stereo not given) -3.91%
COc1cc(CNC(=O)CCCCC=CC(C)C)ccc1O -11.5%
Cc1cc(C(=O)N2CCN(c3cccc(C)c3C)CC2)c2c(C)nn(-c3ccccc3)c2n1 -17.6%
CCOC(=O)c1sc(NC(=O)C2c3ccccc3Oc3ccccc32)c(C#N)c1C -35.2%
COc1cccc(-c2ccc3c(N)c(C(=O)Nc4cc(C(F)(F)F)ccc4OC)sc3n2)c1 3.66%
Cc1ccc(C(=O)c2cn(CC(=O)NCc3ccccc3Cl)c3nc(C)ccc3c2=O)cc1 -8.12%
CCCC(=O)NC(C)c1nc2ccccc2n1Cc1ccccc1 (stereo not given) -7.2%
COc1ccc(S(=O)(=O)N2CCCN(CC(=O)Nc3ccc(OC)cc3OC)CC2)cc1 -11.5%
COc1ccccc1CNC(=O)CCC1N=C2c3ccccc3N=C(SCC(=O)Nc3ccc(N(C)C)cc3)N2C1=O (stereo not given) 12.7%
Cc1c(C(=O)N(C)C)sc2c1c(=O)n(-c1ccc(Cl)cc1)c(=O)n2Cc1ccccc1F -16%
Cc1cccc(OCC(=O)Nc2cc(-c3ccccc3F)nn2-c2ccccc2)c1 6.92%
CC(C)NC(=O)N1CCN(S(=O)(=O)c2ccc3c(ccn3C)c2)CC1 -28.9%
Cc1ccc(C)c(NC(=O)CN(C)S(=O)(=O)c2ccc3c(c2)CCC(=O)N3)c1 -5.51%
CCOC(=O)c1cc(-c2ccc(OC)cc2)n(CCC(=O)NCc2ccc(OC)cc2)c1C -27.5%
OCc1ccccc1O[C@@H]1O[C@H](CO)[C@H](O)[C@H](O)[C@H]1O -5.6%
CCCS(=O)(=O)c1nc(S(=O)(=O)c2ccc(C)cc2)c(N(C)Cc2ccccc2)s1 -26.9%
CCc1ccccc1-n1c(C)nc2cc(C(=O)NCCc3ccc(Cl)cc3)ccc21 -30.3%
Cc1ccc(CNC(=O)C2CCN(S(=O)(=O)c3cn(C)cn3)CC2)cc1 -10.2%
O=C(NCCCc1nc2ccccc2n1Cc1ccc(Cl)cc1)C1CCCCC1 -27.5%
Cc1ccc(-n2ncc(C(=O)NCCN3CCCC3)c2C2CCN(C(=O)OC(C)(C)C)CC2)cc1C -15.5%
COCCCNC(=O)CCc1c(C)nc2nc(-c3cc(OC)cc(OC)c3)nn2c1C -17.2%
CC(C)N(Cc1ccccc1)S(=O)(=O)c1ccc(-c2cc(C(F)(F)F)on2)s1 -25.6%
CC(C)OCCCNC(=O)CN1C(=O)COc2ccc(S(=O)(=O)N3CCCCCC3)cc21 -12%
COCc1c(C(C)C)nc(C(C)C)c(/C=C/[C@@H](O)C[C@@H](O)CC(=O)O)c1-c1ccc(F)cc1 -5.4%
CC(C)c1ccc(Nc2ncnc3onc(-c4ccc(F)cc4)c23)cc1 -25.5%
COc1cc(NC(=O)N2CCC(CN3CCOCC3)CC2)cc(OC)c1OC -1.42%
Cc1cc(Cl)ccc1NC(=O)Cn1nnc2sc(-c3ccccc3)cc2c1=O -7.07%
COc1ccc(OC)c2sc(N3CCN(C(=O)CCS(=O)(=O)c4ccc(F)cc4)CC3)nc12 -16.6%
COC(=O)c1ccc2c(c1)N(Cc1ccc(Cl)cc1)C(=O)c1ccccc1S2 -28.8%
Cc1nc2nc(SCC(=O)NC3CCCCC3)nn2c(C)c1Cc1ccccc1Cl -19.8%
COCCNc1nc2c(c(=O)n(Cc3cccc(Br)c3)c(=O)n2C)n1C 5.54%
COc1cccc(N2CCN(C(=O)c3cc4c(=O)oc5ccc(C)cc5c4s3)CC2)c1 -10.6%
CCCCn1nc(NC(=O)c2cccc(Cl)c2)c2cc3cccc(C)c3nc21 -5.44%
CCCn1c2ccccc2c2cnn(CC(=O)N3CCCC(C)C3)c(=O)c21 (stereo not given) -15.5%
O=C(c1ccc2c(c1)N(Cc1ccc(F)cc1)C(=O)c1ccccc1S2(=O)=O)N1CCCC1 -23.9%
COc1ccccc1Cn1c(CNS(=O)(=O)c2ccc(C(C)C)cc2)nc2cccnc21 -24%
CCC(=O)N1CCCc2cc(S(=O)(=O)N3CCC(C(=O)NC4CCCCC4)CC3)ccc21 -10.7%
COc1ccc(CNC(=O)c2nc(SCc3ccccc3F)ncc2Cl)cc1 -33.5%
CC(NC(=O)c1ccc2c(c1)CCN2S(=O)(=O)c1ccccc1)c1ccccc1 (stereo not given) -15.4%
